{"source": "the supplement of paper PMC9446081", "note": "Out of some 39,000 compounds screened, about 220 (0.56%) showed activity. Some of the results follow.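 Also: static incubation at 37 °C against the wild-type strain, values averaged over two biological replicates.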"}
{"tested_on": "Escherichia coli K-12 BW25113", "assay": "relative growth (OD600 normalised to plate interquartile mean) (fraction); higher = less growth inhibition, active = 0.2 or less", "conditions": "50 µM; LB; incubation time: overnight (16-24 h)"}
{"smiles": "C[C@@H]1CCCCO[C@H](CN(C)C(=O)Nc2ccc(F)cc2)[C@@H](C)CN([C@H](C)CO)C(=O)c2cc(NS(=O)(=O)c3cccs3)ccc2O1", "relative growth": "inactive: 1.02"}
{"smiles": "C[C@@H]1CN([C@H](C)CO)C(=O)c2cccc(NS(=O)(=O)c3cn(C)cn3)c2O[C@H]1CN(C)S(=O)(=O)c1ccc(Cl)cc1", "relative growth": "inactive: 0.999"}
{"smiles": "C[C@@H]1CN([C@H](C)CO)C(=O)Cc2cc(NC(=O)Nc3ccccc3)ccc2O[C@@H]1CN(C)Cc1ccc(Cl)c(Cl)c1", "relative growth": "inactive: 1.01"}
{"smiles": "CC(CN1c2ccccc2Sc2ccccc21)N(C)C.Cl", "note": "(stereo unspecified)", "relative growth": "inactive: 0.837"}
{"smiles": "C[C@@H]1CCCCO[C@@H](CN(C)Cc2ccccc2)[C@H](C)CN([C@H](C)CO)C(=O)c2cc(NC(=O)Nc3ccccc3)ccc2O1", "relative growth": "inactive: 0.981"}
{"smiles": "C[C@H](CO)N1C[C@H](C)[C@@H](CN(C)C(=O)C2CCCCC2)OCCCC[C@H](C)Oc2ccc(NS(=O)(=O)c3ccc(Cl)cc3)cc2C1=O", "relative growth": "inactive: 0.999"}
{"smiles": "C[C@H](CO)N1C[C@H](C)[C@H](CN(C)Cc2ccc3c(c2)OCO3)Oc2ccc(NC(=O)Cn3cnnn3)cc2CC1=O", "relative growth": "inactive: 0.967"}
{"smiles": "Cc1cc(C(=O)Nc2cccc3c2O[C@H](CN(C)C(=O)Nc2ccccc2)[C@H](C)CN([C@H](C)CO)C3=O)n(C)n1", "relative growth": "inactive: 1"}
{"smiles": "COc1ccc(S(=O)(=O)N(C)C[C@@H]2Oc3ccc(NC(=O)Cn4cnnn4)cc3CC(=O)N([C@H](C)CO)C[C@H]2C)cc1", "relative growth": "inactive: 0.988"}
{"smiles": "O=C(CN1CCOCC1)NCC[C@H]1CC[C@@H](NC(=O)c2ccc3c(c2)OCO3)[C@H](CO)O1", "relative growth": "inactive: 1.01"}
{"smiles": "C[C@H]1CN([C@@H](C)CO)C(=O)c2cccc(NC(=O)C3CCOCC3)c2O[C@@H]1CN(C)Cc1ccc2c(c1)OCO2", "relative growth": "inactive: 1.01"}
{"smiles": "C[C@H](CO)N1C[C@H](C)[C@@H](CN(C)C(=O)Nc2ccccc2)OCCCC[C@H](C)Oc2ccc(NS(=O)(=O)c3ccc(F)cc3)cc2C1=O", "relative growth": "inactive: 0.987"}
{"smiles": "COCC#Cc1ccc2c(c1)O[C@H](CN(C)C(=O)COC)[C@@H](C)CN([C@H](C)CO)S2(=O)=O", "relative growth": "inactive: 0.989"}
{"smiles": "C[C@@H]1CN([C@@H](C)CO)C(=O)c2cccc(NS(=O)(=O)c3ccccc3)c2O[C@@H]1CN(C)S(=O)(=O)c1ccc(F)cc1", "relative growth": "inactive: 1.02"}
{"smiles": "COc1ccc(COC[C@@]23Oc4ccccc4[C@@H](NC(=S)N2C)[C@H]3CO[Si](C)(C)C(C)(C)C)cc1", "relative growth": "inactive: 1.01"}
{"smiles": "C[C@@H]1CN([C@@H](C)CO)C(=O)Cc2cc(NS(C)(=O)=O)ccc2O[C@@H]1CN(C)Cc1ccc(C(=O)Nc2ccccc2N)cc1", "relative growth": "inactive: 1.01"}
{"smiles": "C[C@H]1CN([C@@H](C)CO)C(=O)CCCn2nncc2CO[C@@H]1CN(C)S(=O)(=O)c1ccc2c(c1)OCCCO2", "relative growth": "inactive: 1.01"}
{"smiles": "C[C@H](CO)N1C[C@H](C)[C@H](CN(C)Cc2ccccc2)OCCCC[C@H](C)Oc2ccc(NC(=O)Nc3ccccc3)cc2C1=O", "relative growth": "inactive: 0.972"}
{"smiles": "C[C@H](CO)N1C[C@H](C)[C@@H](CN(C)Cc2ccc(C(F)(F)F)cc2)Oc2ccc(NC(=O)Nc3ccc4c(c3)OCO4)cc2C1=O", "relative growth": "inactive: 1.03"}
{"smiles": "Cc1noc(C)c1NC(=O)N(C)C[C@H]1OCCCC[C@H](C)Oc2ccc(NC(=O)Cc3ccccc3)cc2C(=O)N([C@@H](C)CO)C[C@H]1C", "relative growth": "inactive: 0.994"}
{"smiles": "CCS(=O)(=O)N1C[C@]2(C1)CN([C@H](CO)c1c2c2ccc(cc2n1C)OC)C(=O)c1ccc(cc1)F", "relative growth": "inactive: 1.01"}
{"smiles": "COc1ccc2c3c([nH]c2c1)[C@@H](CO)N(C[C@]13CCN(CCc2ccccc2)CC1)C(=O)CN1CCOCC1", "relative growth": "inactive: 1.03"}
{"smiles": "CC(C)NC(=O)N(C)C[C@H]1OCCCC[C@H](C)Oc2ccc(NC(=O)Nc3cccc4ccccc34)cc2C(=O)N([C@@H](C)CO)C[C@H]1C", "relative growth": "inactive: 1.03"}
{"smiles": "CC(C)CC#Cc1cnc2c(c1)C(=O)N([C@H](C)CO)C[C@H](C)[C@@H](CN(C)S(=O)(=O)c1ccccc1)O2", "relative growth": "inactive: 1.02"}
{"smiles": "Cc1cc(C(=O)Nc2cccc3c2O[C@@H](CN(C)C(=O)Nc2ccccc2)[C@H](C)CN([C@H](C)CO)C3=O)n(C)n1", "relative growth": "inactive: 1"}
{"smiles": "C[C@@H]1CCCCO[C@H](CN(C)Cc2ccccc2)[C@H](C)CN([C@@H](C)CO)C(=O)c2cc(NC(=O)Nc3cccc4ccccc34)ccc2O1", "relative growth": "inactive: 1.02"}
{"smiles": "C[C@H]1CN([C@@H](C)CO)C(=O)c2cc(NC(=O)Cc3ccccc3)ccc2O[C@@H]1CN(C)Cc1ccc(-c2ccccc2)cc1", "relative growth": "inactive: 0.949"}
{"smiles": "Cc1ccc(S[C@]2(C(=O)O)CC(=O)N(Cc3ccccc3Cl)[C@@H]2c2ccc(CO)cc2I)cc1", "relative growth": "inactive: 0.861"}
{"smiles": "COc1ccc(CN(C)C[C@H]2Oc3ccc(NC(=O)Nc4ccc(C(F)(F)F)cc4)cc3C(=O)N([C@@H](C)CO)C[C@H]2C)cc1", "relative growth": "inactive: 0.94"}
{"smiles": "CC(C)NC(=O)N(C)C[C@@H]1Oc2ccc(NS(=O)(=O)c3ccc(Cl)cc3)cc2CC(=O)N([C@@H](C)CO)C[C@H]1C", "relative growth": "inactive: 1.01"}
{"smiles": "COc1ccc(CN(C)C[C@H]2OCCCC[C@H](C)Oc3ccc(NC(=O)Nc4ccc(F)cc4)cc3C(=O)N([C@H](C)CO)C[C@H]2C)cc1", "relative growth": "inactive: 0.983"}
{"smiles": "C[C@@H]1CN([C@H](C)CO)C(=O)c2cccc(NC(=O)c3cnccn3)c2O[C@H]1CN(C)C(=O)Nc1ccc(F)cc1", "relative growth": "inactive: 0.998"}
{"smiles": "C[C@@H]1CN([C@H](C)CO)C(=O)c2cc(C#CCN(C)C)cnc2O[C@@H]1CN(C)S(C)(=O)=O", "relative growth": "inactive: 0.955"}
{"smiles": "C[C@@H]1CN([C@H](C)CO)C(=O)c2cc(C#Cc3ccc(F)cc3)cnc2O[C@H]1CN(C)CC1CCOCC1", "relative growth": "inactive: 0.998"}
{"smiles": "C=CCOC(=O)[C@@H]1[C@H]2C(=O)O[C@H](c3ccccc3)[C@H](c3ccccc3)N2[C@H](c2ccc(OCCOC(=O)[C@H]3C[C@H]4C(=O)N[C@@H](CCCCN(C)C)C(=O)N4[C@H]3c3cccc(OCCO)c3)cc2)[C@@]12C(=O)Nc1ccccc12", "relative growth": "inactive: 0.984"}
{"smiles": "O=C(O)CN(CCN(CC(=O)O)CC(=O)O)CC(=O)O", "relative growth": "inactive: 0.949"}
{"smiles": "C[C@@H]1CN([C@H](C)CO)C(=O)Cc2cc(NC(=O)CCCCCC(=O)Nc3ccccc3N)ccc2O[C@H]1CN(C)S(C)(=O)=O", "relative growth": "inactive: 0.979"}
{"smiles": "CO[C@@H]1CN(C)C(=O)c2cc(NC(=O)Nc3cccc(Cl)c3)ccc2OC[C@H](C)N(C(=O)Nc2c(C)noc2C)C[C@H]1C", "relative growth": "inactive: 0.996"}
{"smiles": "C[C@@H]1CN([C@@H](C)CO)C(=O)c2cc(NS(=O)(=O)c3ccc(Cl)cc3)ccc2O[C@H]1CN(C)Cc1ccc(C(F)(F)F)cc1", "relative growth": "inactive: 1.04"}
{"smiles": "CN1CCN(C(=O)C[C@H]2C=C[C@H](NC(=O)Nc3ccccc3F)[C@@H](CO)O2)CC1", "relative growth": "inactive: 0.998"}
{"smiles": "CCS(=O)(=O)N1CC[C@]2(CC1)CN([C@H](CO)c1[nH]c3cc(ccc3c12)OC)S(=O)(=O)c1cn(cn1)C", "relative growth": "inactive: 0.988"}
{"smiles": "C[C@H](CO)N1C[C@H](C)[C@@H](CN(C)CC2CCCCC2)Oc2ccc(NC(=O)CCCCCC(=O)Nc3ccccc3N)cc2C1=O", "relative growth": "inactive: 0.964"}
{"smiles": "C[C@@H]1CN([C@@H](C)CO)C(=O)c2cc(NC(=O)c3ccccc3)ccc2O[C@@H](C)CCCCO[C@@H]1CN(C)Cc1ccc2c(c1)OCO2", "relative growth": "inactive: 1.04"}
{"smiles": "Cc1ccc(S(=O)(=O)Nc2ccc3c(c2)C(=O)N([C@H](C)CO)C[C@H](C)[C@@H](CN(C)C(=O)C2CCCCC2)OCCCC[C@H](C)O3)cc1", "relative growth": "inactive: 0.998"}
{"smiles": "COc1ccc(C#Cc2ccc3c(c2)O[C@H](CN(C)C(=O)c2ccccn2)[C@@H](C)CN([C@H](C)CO)S3(=O)=O)cc1", "relative growth": "inactive: 0.995"}
{"smiles": "C[C@@H]1CCCCO[C@H](CN(C)C(=O)Nc2cccc3ccccc23)[C@H](C)CN([C@@H](C)CO)C(=O)c2cc(NC(=O)Nc3cccc4ccccc34)ccc2O1", "relative growth": "inactive: 1.03"}
{"smiles": "COCC#Cc1ccc2c(c1)O[C@@H](CN(C)S(=O)(=O)c1ccc(C)cc1)[C@H](C)CN([C@H](C)CO)S2(=O)=O", "relative growth": "inactive: 1.02"}
{"smiles": "C[C@@H]1CCCCO[C@@H](CN(C)S(=O)(=O)c2cccs2)[C@@H](C)CN([C@@H](C)CO)C(=O)c2cc(NC(=O)Cc3ccccc3)ccc2O1", "relative growth": "inactive: 1.02"}
{"smiles": "O=C(C[C@H]1C[C@H]2c3cc(NS(=O)(=O)c4ccc(F)cc4)ccc3O[C@H]2[C@@H](CO)O1)NCc1ccc(Oc2ccccc2)cc1", "relative growth": "inactive: 1"}
{"smiles": "CCCC(=O)Nc1ccc2c(c1)OC[C@H](C)N(S(=O)(=O)c1cn(C)cn1)C[C@H](C)[C@@H](OC)CN(C)C2=O", "relative growth": "inactive: 1"}
{"smiles": "COc1ccc(NC(=O)N(C)C[C@@H]2Oc3ccc(NC(=O)Cn4cnnn4)cc3CC(=O)N([C@H](C)CO)C[C@@H]2C)cc1", "relative growth": "inactive: 0.932"}
{"smiles": "CCc1nc2ccc(C(=O)NCc3ccc4c(c3)OCO4)cn2c1N(CC)Cc1cccc(Br)c1", "relative growth": "inactive: 1.02"}
{"smiles": "Cc1cc(C)c(S(=O)(=O)Nc2cc([C@@H](C(=O)OC(C)C)C(=O)C(F)(F)F)c(O)c3ccccc23)c(C)c1", "relative growth": "inactive: 0.962"}
{"smiles": "C[C@H]1CCCCO[C@H](CN(C)C(=O)c2ccccc2)[C@@H](C)CN([C@@H](C)CO)C(=O)c2cc(NC(=O)NC3CCCCC3)ccc2O1", "relative growth": "inactive: 1.01"}
{"smiles": "COc1ccc(S(=O)(=O)Nc2ccc3c(c2)C(=O)N([C@@H](C)CO)C[C@@H](C)[C@@H](CN(C)CC2CC2)O3)cc1", "relative growth": "inactive: 1.02"}
{"smiles": "C[C@@H]1CN([C@@H](C)CO)C(=O)c2cc(NS(=O)(=O)c3cn(C)cn3)ccc2O[C@H]1CN(C)S(=O)(=O)c1cn(C)cn1", "relative growth": "inactive: 0.995"}
